{"source": "a collection of fitness landscapes (doi:10.1016/j.celrep.2020.107928)", "parents": {"B1": {"name": "Caulobacter ParB omega fusion; a variant is named by its letters at X, in order, B8GW30 (parent)", "chain": "MESVVVGEPGMSEGRRGLGRGLSALLGEVDAAPAQAPGEQLGGSREAPIEILQRNPDQPRRTFREEDLEDLSNSIREKGVLQPILVRPSPDTAGEYQIVAGERAWRAAQRAGLKTVPIMVRELDDLAVLEIGIIENVQRADLNVLEEALSYKVLMEKFERTQENIAQTIGKSXSHVANXMRLLXLPDEVQSYLVSGELTAXHARAIAAAADPVALAKQIIEGGLSVRETEALARKAPNLSAGKSKGGRPPRVKDTDTQALESDLSSVLGLDVSIDHRGSTGTLTITYATLEQLDDLCNRLTRGI"}}, "note": "In all, about 81,000 sequences were measured (“one-hybrid fitness for binding NBS DNA”: median about -0.1, highest 2% from about 0.36 on). Some of the results follow.", "data": [{"variants_of": "B1", "test": "one-hybrid fitness for binding NBS DNA (the Noc-binding site; scaled: cognate 1, non-cognate 0); higher = stronger binding", "settings": "with NBS DNA site", "procedure,_shortened": "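Fitness is the rescaled log change in variant-to-wild-type read ratio, measured by Illumina sequencing of plasmids before and after bacterial one-hybrid selection. The scale puts cognate at 1 and non-cognate at 0. Selection of Caulobacter ParB libraries, four specificity codons randomised, took place in E. coli USO with a HIS3 reporter, site 19 bp from the promoter, over 48 hours at 37°C on M9-minus-histidine with 0.1 mM IPTG and 5 mM 3-AT.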", "values": [{"variant": "YNSR", "one-hybrid fitness for binding NBS DNA": "≤ 0.2"}, {"variant": "PQCR", "one-hybrid fitness for binding NBS DNA": "≤ 0.2"}, {"variant": "VVES", "one-hybrid fitness for binding NBS DNA": "≤ 0.2"}, {"variant": "GKAT", "one-hybrid fitness for binding NBS DNA": "≤ 0.2"}, {"variant": "ESTV", "one-hybrid fitness for binding NBS DNA": "≤ 0.2"}, {"variant": "GNCY", "one-hybrid fitness for binding NBS DNA": "≤ 0.2"}, {"variant": "NSGR", "one-hybrid fitness for binding NBS DNA": "≤ 0.2"}, {"variant": "APIS", "one-hybrid fitness for binding NBS DNA": "≤ 0.2"}, {"variant": "TIIG", "one-hybrid fitness for binding NBS DNA": "≤ 0.2"}, {"variant": "SFKQ", "one-hybrid fitness for binding NBS DNA": "≤ 0.2"}, {"variant": "CAQG", "one-hybrid fitness for binding NBS DNA": "≤ 0.2"}, {"variant": "ESQT", "one-hybrid fitness for binding NBS DNA": "≤ 0.2"}, {"variant": "SHSM", "one-hybrid fitness for binding NBS DNA": "≤ 0.2"}, {"variant": "MKAT", "one-hybrid fitness for binding NBS DNA": "≤ 0.2"}, {"variant": "MSTR", "one-hybrid fitness for binding NBS DNA": "≤ 0.2"}, {"variant": "DPLS", "one-hybrid fitness for binding NBS DNA": "≤ 0.2"}, {"variant": "NVQC", "one-hybrid fitness for binding NBS DNA": "≤ 0.2"}, {"variant": "YGLR", "one-hybrid fitness for binding NBS DNA": "≤ 0.2"}, {"variant": "LTQT", "one-hybrid fitness for binding NBS DNA": "≤ 0.2"}, {"variant": "RMTV", "one-hybrid fitness for binding NBS DNA": "≤ 0.2"}, {"variant": "KLDS", "one-hybrid fitness for binding NBS DNA": "≤ 0.2"}, {"variant": "PAFN", "one-hybrid fitness for binding NBS DNA": "≤ 0.2"}, {"variant": "NTTL", "one-hybrid fitness for binding NBS DNA": "≤ 0.2"}, {"variant": "RTHF", "one-hybrid fitness for binding NBS DNA": "≤ 0.2"}, {"variant": "QELS", "one-hybrid fitness for binding NBS DNA": "≤ 0.2"}, {"variant": "MYNC", "one-hybrid fitness for binding NBS DNA": "≤ 0.2"}, {"variant": "TFQT", "one-hybrid fitness for binding NBS DNA": "≤ 0.2"}, {"variant": "QNNL", "one-hybrid fitness for binding NBS DNA": "≤ 0.2"}, {"variant": "FYYT", "one-hybrid fitness for binding NBS DNA": "≤ 0.2"}, {"variant": "PSVT", "one-hybrid fitness for binding NBS DNA": "≤ 0.2"}, {"variant": "RSWK", "one-hybrid fitness for binding NBS DNA": "≤ 0.2"}, {"variant": "QVVC", "one-hybrid fitness for binding NBS DNA": "≤ 0.2"}, {"variant": "GAAW", "one-hybrid fitness for binding NBS DNA": "≤ 0.2"}, {"variant": "SIPG", "one-hybrid fitness for binding NBS DNA": "≤ 0.2"}, {"variant": "LNLA", "one-hybrid fitness for binding NBS DNA": "≤ 0.2"}, {"variant": "IPAG", "one-hybrid fitness for binding NBS DNA": "≤ 0.2"}, {"variant": "GLQS", "one-hybrid fitness for binding NBS DNA": "≤ 0.2"}, {"variant": "WYLY", "one-hybrid fitness for binding NBS DNA": "≤ 0.2"}, {"variant": "TGNI", "one-hybrid fitness for binding NBS DNA": "≤ 0.2"}, {"variant": "TVVM", "one-hybrid fitness for binding NBS DNA": "≤ 0.2"}, {"variant": "SPIH", "one-hybrid fitness for binding NBS DNA": "≤ 0.2"}, {"variant": "ILQR", "one-hybrid fitness for binding NBS DNA": "≤ 0.2"}, {"variant": "KLVK", "one-hybrid fitness for binding NBS DNA": "≤ 0.2"}, {"variant": "SRRK", "one-hybrid fitness for binding NBS DNA": "≤ 0.2"}, {"variant": "RLGM", "one-hybrid fitness for binding NBS DNA": "≤ 0.2"}, {"variant": "HMGI", "one-hybrid fitness for binding NBS DNA": "≤ 0.2"}, {"variant": "VIYC", "one-hybrid fitness for binding NBS DNA": "≤ 0.2"}, {"variant": "PKQC", "one-hybrid fitness for binding NBS DNA": "≤ 0.2"}, {"variant": "NLAG", "one-hybrid fitness for binding NBS DNA": "≤ 0.2"}, {"variant": "LPSA", "one-hybrid fitness for binding NBS DNA": "≤ 0.2"}, {"variant": "NVLA", "one-hybrid fitness for binding NBS DNA": "≤ 0.2"}, {"variant": "GTLE", "one-hybrid fitness for binding NBS DNA": "≤ 0.2"}, {"variant": "DRTQ", "one-hybrid fitness for binding NBS DNA": "≤ 0.2"}, {"variant": "QMDD", "one-hybrid fitness for binding NBS DNA": "≤ 0.2"}, {"variant": "SWEE", "one-hybrid fitness for binding NBS DNA": "≤ 0.2"}, {"variant": "PWIM", "one-hybrid fitness for binding NBS DNA": "≤ 0.2"}, {"variant": "YKPS", "one-hybrid fitness for binding NBS DNA": "≤ 0.2"}, {"variant": "MACK", "one-hybrid fitness for binding NBS DNA": "≤ 0.2"}, {"variant": "RLRV", "one-hybrid fitness for binding NBS DNA": "≤ 0.2"}, {"variant": "VMVT", "one-hybrid fitness for binding NBS DNA": "≤ 0.2"}, {"variant": "RFKK", "one-hybrid fitness for binding NBS DNA": "≤ 0.2"}, {"variant": "WWNC", "one-hybrid fitness for binding NBS DNA": "≤ 0.2"}, {"variant": "NPHC", "one-hybrid fitness for binding NBS DNA": "≤ 0.2"}, {"variant": "YHPF", "one-hybrid fitness for binding NBS DNA": "≤ 0.2"}, {"variant": "GTQK", "one-hybrid fitness for binding NBS DNA": "≤ 0.2"}, {"variant": "GSNR", "one-hybrid fitness for binding NBS DNA": "≤ 0.2"}, {"variant": "WHKV", "one-hybrid fitness for binding NBS DNA": "≤ 0.2"}, {"variant": "DGQS", "one-hybrid fitness for binding NBS DNA": "≤ 0.2"}, {"variant": "RWQT", "one-hybrid fitness for binding NBS DNA": "≤ 0.2"}, {"variant": "RQES", "one-hybrid fitness for binding NBS DNA": "≤ 0.2"}, {"variant": "LCIF", "one-hybrid fitness for binding NBS DNA": "≤ 0.2"}, {"variant": "RYYA", "one-hybrid fitness for binding NBS DNA": "≤ 0.2"}, {"variant": "KKGK", "one-hybrid fitness for binding NBS DNA": "≤ 0.2"}, {"variant": "DPSR", "one-hybrid fitness for binding NBS DNA": "≤ 0.2"}, {"variant": "LIKQ", "one-hybrid fitness for binding NBS DNA": "≤ 0.2"}, {"variant": "TKAT", "one-hybrid fitness for binding NBS DNA": "≤ 0.2"}, {"variant": "CCRT", "one-hybrid fitness for binding NBS DNA": "≤ 0.2"}, {"variant": "WHNG", "one-hybrid fitness for binding NBS DNA": "≤ 0.2"}, {"variant": "GQNC", "one-hybrid fitness for binding NBS DNA": "≤ 0.2"}, {"variant": "PENT", "one-hybrid fitness for binding NBS DNA": "≤ 0.2"}, {"variant": "HKRE", "one-hybrid fitness for binding NBS DNA": "≤ 0.2"}, {"variant": "QCNE", "one-hybrid fitness for binding NBS DNA": "≤ 0.2"}, {"variant": "RKPD", "one-hybrid fitness for binding NBS DNA": "≤ 0.2"}, {"variant": "MTPF", "one-hybrid fitness for binding NBS DNA": "≤ 0.2"}, {"variant": "MCRT", "one-hybrid fitness for binding NBS DNA": "≤ 0.2"}, {"variant": "ARTD", "one-hybrid fitness for binding NBS DNA": "≤ 0.2"}, {"variant": "QNLV", "one-hybrid fitness for binding NBS DNA": "≤ 0.2"}, {"variant": "QWLG", "one-hybrid fitness for binding NBS DNA": "≤ 0.2"}, {"variant": "TIAR", "one-hybrid fitness for binding NBS DNA": "≤ 0.2"}, {"variant": "RTYY", "one-hybrid fitness for binding NBS DNA": "≤ 0.2"}, {"variant": "RECG", "one-hybrid fitness for binding NBS DNA": "≤ 0.2"}, {"variant": "MCGT", "one-hybrid fitness for binding NBS DNA": "≤ 0.2"}, {"variant": "NSHE", "one-hybrid fitness for binding NBS DNA": "≤ 0.2"}, {"variant": "WCTC", "one-hybrid fitness for binding NBS DNA": "≤ 0.2"}, {"variant": "DAEC", "one-hybrid fitness for binding NBS DNA": "≤ 0.2"}, {"variant": "SACC", "one-hybrid fitness for binding NBS DNA": "≤ 0.2"}, {"variant": "NVIK", "one-hybrid fitness for binding NBS DNA": "≤ 0.2"}, {"variant": "STKV", "one-hybrid fitness for binding NBS DNA": "≤ 0.2"}]}]}
